The record followed here is the supplement of paper PMC12217912.

First the molecules themselves.
B1: TEV protease; numbered along this chain (parent)
chain: MGESLFKGPRDYNPISSSICHLTNESDGHTTSLYGIGFGPFIITNKHLFRRNNGTLVVQSLHGVFKVKDTTTLQQHLVDGRDMIIIRMPKDFPPFPQKLKFREPQREERICLVTTNFQTKSMSSMVSDTSCTFPSGDGIFWKHWIQTKDGQCGSPLVSTRDGFIVGIHSASNFTNTNNYFTSVPKNFMELLTNQEAQQWVSGWRLNADSVLWGGHKVFMVKPEEPFQPVKEATQL

The list shows a part of the results. The full chains were built here from the parent and the listed change. Values near 0.05 are background.
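Also: Bxb1 expression induced with 0.2% (w/v) L-rhamnose at OD600 near 0.5, cultures sampled hourly, flipped fraction per protease–substrate barcode pair counted by paired-end Illumina sequencing.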

Variants of B1 are the subject of the assay. Briefly: raw area under fraction-flipped curve 0-4 h after induction (AUC4h, not background-subtracted), DNA-recorder readout of cleavage of the substrate (dimensionless); higher = more cleavage of the substrate by the protease variant. Conditions: temperature: 34 °C; time window: 0-4 h after rhamnose induction. As for the experimental part: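 In vivo DNA recorder in E. coli TOP10(DE3) ΔrhaA at 34 °C. Each TEVp single-site mutant (parent TEVp 0) is paired with a single-site variant of the 7-mer TEVs (canonical ENLYFQ|S). The substrate sits between flexible linkers in a Bxb1-sfGFP-TEVs-SsrA fusion, so cleavage stabilises Bxb1 and speeds flipping of a recombination array, read by NGS. The value is the raw area under the fraction-flipped curve over 0-4 h after rhamnose induction (AUC4h), with ≥20 reads per time point. It is not background-subtracted; inactive controls average about 0.047.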
As to MGESLFKGPRDYNPISSSICHLTNESDGHTTSLYGIGFGPFIITNKHLFRRNNGTLVVQSLHGVFKVKDTTTLQQHLVDGRDMIIIRMPKDFPPFPQKLKFREPQREESICLVTTNFQTKSMSSMVSDTSCTFPSGDGIFWKHWIQTKDGQCGSPLVSTRDGFIVGIHSASNFTNTNNYFTSVPKNFMELLTNQEAQQWVSGWRLNADSVLWGGHKVFMVKPEEPFQPVKEATQL [R109S], the “area with substrate DNLYFQS” value was determined as 0.0656, the “area with substrate GNLYFQS” value was 0.0528, the “area with substrate HNLYFQS” value was determined as 0.0582 and the “area with substrate INLYFQS” value stood at 0.066. Moreover, the “area with substrate KNLYFQS” value came to 0.0447, the “area with substrate LNLYFQS” value was 0.0605, the “area with substrate MNLYFQS” value was found to be 0.0587 and the “area with substrate PNLYFQS” value turned out to be 0.0593. Moreover, the “area with substrate RNLYFQS” value came to 0.0844, the “area with substrate SNLYFQS” value worked out at 0.063, the “area with substrate TNLYFQS” value turned out to be 0.0746 and the “area with substrate WNLYFQS” value amounted to 0.0569. The “area with substrate YNLYFQS” value is 0.0627.

On to MGESLFKGPRDYNPISSSICHLTNESDGHTTSLYGIGFGPFIITNKHLFRRNNGTLVVQSLHGVFKVKDTTTLQQHLVDGRDMIIIRMPKDFPPFPQKLKFREPQREERIELVTTNFQTKSMSSMVSDTSCTFPSGDGIFWKHWIQTKDGQCGSPLVSTRDGFIVGIHSASNFTNTNNYFTSVPKNFMELLTNQEAQQWVSGWRLNADSVLWGGHKVFMVKPEEPFQPVKEATQL [C111E], for which the “area with substrate DNLYFQS” value was determined as 0.087, the “area with substrate GNLYFQS” value was 0.0595, the “area with substrate HNLYFQS” value was found to be 0.05 and the “area with substrate KNLYFQS” value worked out at 0.0539. In addition, the “area with substrate PNLYFQS” value is 0.0605, the “area with substrate SNLYFQS” value came out at 0.028 and the “area with substrate TNLYFQS” value was 0.0639.

In the case of MGESLFKGPRDYNPISSSICHLTNESDGHTTSLYGIGFGPFIITNKHLFRRNNGTLVVQSLHGVFKVKDTTTLQQHLVDGRDMIIIRMPKDFPPFPQKLKFREPQREERIQLVTTNFQTKSMSSMVSDTSCTFPSGDGIFWKHWIQTKDGQCGSPLVSTRDGFIVGIHSASNFTNTNNYFTSVPKNFMELLTNQEAQQWVSGWRLNADSVLWGGHKVFMVKPEEPFQPVKEATQL [C111Q], the “area with substrate DNLYFQS” value amounted to 0.0594, the “area with substrate KNLYFQS” value came to 0.0762, the “area with substrate LNLYFQS” value is 0.0749 and the “area with substrate RNLYFQS” value was found to be 0.0673. The “area with substrate WNLYFQS” value was 0.0582.

Consider MGESLFKGPRDYNPISSSICHLTNESDGHTTSLYGIGFGPFIITNKHLFRRNNGTLVVQSLHGVFKVKDTTTLQQHLVDGRDMIIIRMPKDFPPFPQKLKFREPQREERICLVTTIFQTKSMSSMVSDTSCTFPSGDGIFWKHWIQTKDGQCGSPLVSTRDGFIVGIHSASNFTNTNNYFTSVPKNFMELLTNQEAQQWVSGWRLNADSVLWGGHKVFMVKPEEPFQPVKEATQL [N116I], for which the “area with substrate DNLYFQS” value worked out at 0.0634, the “area with substrate GNLYFQS” value was found to be 0.0493, the “area with substrate LNLYFQS” value worked out at 0.0707 and the “area with substrate TNLYFQS” value is 0.0686.

In the case of MGESLFKGPRDYNPISSSICHLTNESDGHTTSLYGIGFGPFIITNKHLFRRNNGTLVVQSLHGVFKVKDTTTLQQHLVDGRDMIIIRMPKDFPPFPQKLKFREPQREERICLVTTNFQTKSMLSMVSDTSCTFPSGDGIFWKHWIQTKDGQCGSPLVSTRDGFIVGIHSASNFTNTNNYFTSVPKNFMELLTNQEAQQWVSGWRLNADSVLWGGHKVFMVKPEEPFQPVKEATQL [S123L], the “area with substrate DNLYFQS” value turned out to be 0.0874, the “area with substrate FNLYFQS” value was 0.0732, the “area with substrate HNLYFQS” value turned out to be 0.045 and the “area with substrate INLYFQS” value turned out to be 0.0674. For the same variant, the “area with substrate KNLYFQS” value worked out at 0.0734, the “area with substrate NNLYFQS” value worked out at 0.0763, the “area with substrate PNLYFQS” value was found to be 0.0689 and the “area with substrate SNLYFQS” value was 0.0714. Besides, the “area with substrate TNLYFQS” value came out at 0.0805, the “area with substrate VNLYFQS” value amounted to 0.0623, the “area with substrate WNLYFQS” value is 0.0612 and the “area with substrate YNLYFQS” value was 0.0671.

For MGESLFKGPRDYNPISSSICHLTNESDGHTTSLYGIGFGPFIITNKHLFRRNNGTLVVQSLHGVFKVKDTTTLQQHLVDGRDMIIIRMPKDFPPFPQKLKFREPQREERICLVTTNFQTKSMSSMKSDTSCTFPSGDGIFWKHWIQTKDGQCGSPLVSTRDGFIVGIHSASNFTNTNNYFTSVPKNFMELLTNQEAQQWVSGWRLNADSVLWGGHKVFMVKPEEPFQPVKEATQL [V126K], the “area with substrate DNLYFQS” value is 0.0684, the “area with substrate FNLYFQS” value came out at 0.0658, the “area with substrate HNLYFQS” value was 0.0592 and the “area with substrate INLYFQS” value came out at 0.0641. In addition, the “area with substrate MNLYFQS” value came to 0.073, the “area with substrate NNLYFQS” value was determined as 0.0542, the “area with substrate PNLYFQS” value was determined as 0.0685 and the “area with substrate SNLYFQS” value was 0.0805. Besides, the “area with substrate TNLYFQS” value came to 0.0728, the “area with substrate WNLYFQS” value was found to be 0.0529 and the “area with substrate YNLYFQS” value is 0.0563.

On to MGESLFKGPRDYNPISSSICHLTNESDGHTTSLYGIGFGPFIITNKHLFRRNNGTLVVQSLHGVFKVKDTTTLQQHLVDGRDMIIIRMPKDFPPFPQKLKFREPQREERICLVSTNFQTKSMSSMVSDTSCTFPSGDGIFWKHWIQTKDGQCGSPLVSTRDGFIVGIHSASNFTNTNNYFTSVPKNFMELLTNQEAQQWVSGWRLNADSVLWGGHKVFMVKPEEPFQPVKEATQL [T114S], for which the “area with substrate DNLYFQS” value amounted to 0.0859, the “area with substrate GNLYFQS” value is 0.0851, the “area with substrate HNLYFQS” value was found to be 0.0671 and the “area with substrate MNLYFQS” value came to 0.0668. Besides, the “area with substrate VNLYFQS” value turned out to be 0.0555, the “area with substrate WNLYFQS” value stood at 0.0578 and the “area with substrate YNLYFQS” value was determined as 0.069.

Consider MGESLFKGPRDYNPISSSICHLTNESDGHTTSLYGIGFGPFIITNKHLFRRNNGTLVVQSLHGVFKVKDTTTLQQHLVDGRDMIIIRMPKDFPPFPQKLKFREPQREERICLVTTNYQTKSMSSMVSDTSCTFPSGDGIFWKHWIQTKDGQCGSPLVSTRDGFIVGIHSASNFTNTNNYFTSVPKNFMELLTNQEAQQWVSGWRLNADSVLWGGHKVFMVKPEEPFQPVKEATQL [F117Y], for which the “area with substrate DNLYFQS” value was 0.0484, the “area with substrate HNLYFQS” value turned out to be 0.0738, the “area with substrate MNLYFQS” value worked out at 0.0691 and the “area with substrate PNLYFQS” value was 0.0725. Besides, the “area with substrate SNLYFQS” value was 0.0619, the “area with substrate TNLYFQS” value is 0.0822 and the “area with substrate WNLYFQS” value turned out to be 0.0539.

As for MGESLFKGPRDYNPISSSICHLTNESDGHTTSLYGIGFGPFIITNKHLFRRNNGTLVVQSLHGVFKVKDTTTLQQHLVDGRDMIIIRMPKDFPPFPQKLKFREPQREERICLVTTNTQTKSMSSMVSDTSCTFPSGDGIFWKHWIQTKDGQCGSPLVSTRDGFIVGIHSASNFTNTNNYFTSVPKNFMELLTNQEAQQWVSGWRLNADSVLWGGHKVFMVKPEEPFQPVKEATQL [F117T], the “area with substrate DNLYFQS” value amounted to 0.0818, the “area with substrate FNLYFQS” value was determined as 0.0706, the “area with substrate HNLYFQS” value came to 0.0639 and the “area with substrate INLYFQS” value stood at 0.0582. Moreover, the “area with substrate MNLYFQS” value was determined as 0.1, the “area with substrate SNLYFQS” value turned out to be 0.0662, the “area with substrate TNLYFQS” value was 0.0624 and the “area with substrate WNLYFQS” value was 0.0406.

Consider MGESLFKGPRDYNPISSSICHLTNESDGHTTSLYGIGFGPFIITNKHLFRRNNGTLVVQSLHGVFKVKDTTTLQQHLVDGRDMIIIRMPKDFPPFPQKLKFREPQREERICLETTNFQTKSMSSMVSDTSCTFPSGDGIFWKHWIQTKDGQCGSPLVSTRDGFIVGIHSASNFTNTNNYFTSVPKNFMELLTNQEAQQWVSGWRLNADSVLWGGHKVFMVKPEEPFQPVKEATQL [V113E], for which the “area with substrate DNLYFQS” value worked out at 0.0579, the “area with substrate FNLYFQS” value was 0.0718, the “area with substrate GNLYFQS” value turned out to be 0.0355 and the “area with substrate LNLYFQS” value stood at 0.0546. For the same variant, the “area with substrate NNLYFQS” value is 0.0658, the “area with substrate PNLYFQS” value was determined as 0.0621, the “area with substrate SNLYFQS” value stood at 0.048 and the “area with substrate VNLYFQS” value stood at 0.0377. Also, the “area with substrate WNLYFQS” value worked out at 0.0376 and the “area with substrate YNLYFQS” value amounted to 0.0475.

As for MGESLFKGPRDYNPISSSICHLTNESDGHTTSLYGIGFGPFIITNKHLFRRNNGTLVVQSLHGVFKVKDTTTLQQHLVDGRDMIIIRMPKDFPPFPQKLKFREPQREERWCLVTTNFQTKSMSSMVSDTSCTFPSGDGIFWKHWIQTKDGQCGSPLVSTRDGFIVGIHSASNFTNTNNYFTSVPKNFMELLTNQEAQQWVSGWRLNADSVLWGGHKVFMVKPEEPFQPVKEATQL [I110W], the “area with substrate DNLYFQS” value came out at 0.0641, the “area with substrate KNLYFQS” value turned out to be 0.0483, the “area with substrate LNLYFQS” value amounted to 0.0541 and the “area with substrate NNLYFQS” value was found to be 0.0408. Also, the “area with substrate PNLYFQS” value was determined as 0.0619 and the “area with substrate TNLYFQS” value was determined as 0.0575.
